From patent US9340590B2 (priority 2011, dated 2016)
pIC50: −log10 of the molar value. Where two headings read alike, the source gives them in different places. For at least one compound, name, drawing or mass did not settle the structure.

Columns and labels:
Type in all cases: cell-based
hNav1.5 = hNav1.5 (Homo sapiens, UniProt Q14524); details: IonWorks Quattro, read-out: IWQ Use Nav1.5
hNav1.7 = hNav1.7 (Homo sapiens, UniProt Q15858); details: IonWorks Quattro, read-out: IWQ Use Nav1.7
hNav1.3 = hNav1.3 (Homo sapiens, UniProt Q9NY46); details: IonWorks Quattro, read-out: IWQ Use Nav1.3

Chain of hNav1.5 (Q14524 whole entry, looked up): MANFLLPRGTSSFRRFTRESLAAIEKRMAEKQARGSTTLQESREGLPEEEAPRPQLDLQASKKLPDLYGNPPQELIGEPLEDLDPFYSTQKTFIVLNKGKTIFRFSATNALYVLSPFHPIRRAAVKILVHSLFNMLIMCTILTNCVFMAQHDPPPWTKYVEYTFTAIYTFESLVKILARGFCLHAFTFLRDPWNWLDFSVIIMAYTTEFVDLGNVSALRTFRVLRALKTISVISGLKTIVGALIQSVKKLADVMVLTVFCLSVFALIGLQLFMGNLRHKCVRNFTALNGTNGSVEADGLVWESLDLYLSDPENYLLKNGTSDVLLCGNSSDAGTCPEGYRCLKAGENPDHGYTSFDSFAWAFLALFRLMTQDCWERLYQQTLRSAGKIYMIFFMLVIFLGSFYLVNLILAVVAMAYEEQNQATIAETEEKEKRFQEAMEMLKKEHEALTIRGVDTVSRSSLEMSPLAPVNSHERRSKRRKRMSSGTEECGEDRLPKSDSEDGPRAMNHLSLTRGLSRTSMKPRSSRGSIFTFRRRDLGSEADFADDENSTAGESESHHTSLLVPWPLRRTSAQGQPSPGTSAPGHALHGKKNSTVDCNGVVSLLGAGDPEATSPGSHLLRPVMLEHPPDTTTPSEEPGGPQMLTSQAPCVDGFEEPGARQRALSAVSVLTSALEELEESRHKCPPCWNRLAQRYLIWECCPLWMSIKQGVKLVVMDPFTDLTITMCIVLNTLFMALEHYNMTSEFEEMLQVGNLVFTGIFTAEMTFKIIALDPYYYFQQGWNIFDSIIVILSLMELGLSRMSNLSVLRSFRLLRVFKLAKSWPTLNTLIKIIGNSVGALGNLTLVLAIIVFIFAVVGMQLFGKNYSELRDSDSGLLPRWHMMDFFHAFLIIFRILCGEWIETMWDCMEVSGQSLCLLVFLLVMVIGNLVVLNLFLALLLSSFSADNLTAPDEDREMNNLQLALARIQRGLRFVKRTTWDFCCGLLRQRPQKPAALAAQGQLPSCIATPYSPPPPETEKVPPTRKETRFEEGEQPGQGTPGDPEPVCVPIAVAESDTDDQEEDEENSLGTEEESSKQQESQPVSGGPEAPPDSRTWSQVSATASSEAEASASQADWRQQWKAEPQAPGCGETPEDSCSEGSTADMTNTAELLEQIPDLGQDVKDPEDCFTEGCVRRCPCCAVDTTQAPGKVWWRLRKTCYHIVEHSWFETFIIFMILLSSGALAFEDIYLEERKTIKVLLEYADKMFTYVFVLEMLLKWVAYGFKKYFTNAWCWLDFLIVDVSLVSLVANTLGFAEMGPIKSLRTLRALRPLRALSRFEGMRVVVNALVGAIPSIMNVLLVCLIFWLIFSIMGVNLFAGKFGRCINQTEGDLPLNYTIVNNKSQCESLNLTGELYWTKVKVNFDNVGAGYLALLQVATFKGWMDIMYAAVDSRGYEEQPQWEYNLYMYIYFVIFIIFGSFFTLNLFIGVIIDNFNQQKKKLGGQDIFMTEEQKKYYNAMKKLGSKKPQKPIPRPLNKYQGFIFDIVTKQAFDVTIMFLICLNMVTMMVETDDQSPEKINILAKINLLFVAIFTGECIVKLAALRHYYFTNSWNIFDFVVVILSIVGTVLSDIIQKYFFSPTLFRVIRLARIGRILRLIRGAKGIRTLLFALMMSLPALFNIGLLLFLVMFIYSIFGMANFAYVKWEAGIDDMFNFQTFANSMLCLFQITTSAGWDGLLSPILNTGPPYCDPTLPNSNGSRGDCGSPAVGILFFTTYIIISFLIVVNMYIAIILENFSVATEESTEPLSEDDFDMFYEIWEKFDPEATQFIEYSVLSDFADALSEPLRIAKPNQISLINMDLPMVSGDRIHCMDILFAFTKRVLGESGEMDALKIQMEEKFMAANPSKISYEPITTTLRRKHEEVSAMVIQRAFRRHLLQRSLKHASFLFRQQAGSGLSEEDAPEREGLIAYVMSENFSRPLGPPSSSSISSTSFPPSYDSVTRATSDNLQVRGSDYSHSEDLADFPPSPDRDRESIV
Chain of hNav1.7 (Q15858 whole entry, looked up): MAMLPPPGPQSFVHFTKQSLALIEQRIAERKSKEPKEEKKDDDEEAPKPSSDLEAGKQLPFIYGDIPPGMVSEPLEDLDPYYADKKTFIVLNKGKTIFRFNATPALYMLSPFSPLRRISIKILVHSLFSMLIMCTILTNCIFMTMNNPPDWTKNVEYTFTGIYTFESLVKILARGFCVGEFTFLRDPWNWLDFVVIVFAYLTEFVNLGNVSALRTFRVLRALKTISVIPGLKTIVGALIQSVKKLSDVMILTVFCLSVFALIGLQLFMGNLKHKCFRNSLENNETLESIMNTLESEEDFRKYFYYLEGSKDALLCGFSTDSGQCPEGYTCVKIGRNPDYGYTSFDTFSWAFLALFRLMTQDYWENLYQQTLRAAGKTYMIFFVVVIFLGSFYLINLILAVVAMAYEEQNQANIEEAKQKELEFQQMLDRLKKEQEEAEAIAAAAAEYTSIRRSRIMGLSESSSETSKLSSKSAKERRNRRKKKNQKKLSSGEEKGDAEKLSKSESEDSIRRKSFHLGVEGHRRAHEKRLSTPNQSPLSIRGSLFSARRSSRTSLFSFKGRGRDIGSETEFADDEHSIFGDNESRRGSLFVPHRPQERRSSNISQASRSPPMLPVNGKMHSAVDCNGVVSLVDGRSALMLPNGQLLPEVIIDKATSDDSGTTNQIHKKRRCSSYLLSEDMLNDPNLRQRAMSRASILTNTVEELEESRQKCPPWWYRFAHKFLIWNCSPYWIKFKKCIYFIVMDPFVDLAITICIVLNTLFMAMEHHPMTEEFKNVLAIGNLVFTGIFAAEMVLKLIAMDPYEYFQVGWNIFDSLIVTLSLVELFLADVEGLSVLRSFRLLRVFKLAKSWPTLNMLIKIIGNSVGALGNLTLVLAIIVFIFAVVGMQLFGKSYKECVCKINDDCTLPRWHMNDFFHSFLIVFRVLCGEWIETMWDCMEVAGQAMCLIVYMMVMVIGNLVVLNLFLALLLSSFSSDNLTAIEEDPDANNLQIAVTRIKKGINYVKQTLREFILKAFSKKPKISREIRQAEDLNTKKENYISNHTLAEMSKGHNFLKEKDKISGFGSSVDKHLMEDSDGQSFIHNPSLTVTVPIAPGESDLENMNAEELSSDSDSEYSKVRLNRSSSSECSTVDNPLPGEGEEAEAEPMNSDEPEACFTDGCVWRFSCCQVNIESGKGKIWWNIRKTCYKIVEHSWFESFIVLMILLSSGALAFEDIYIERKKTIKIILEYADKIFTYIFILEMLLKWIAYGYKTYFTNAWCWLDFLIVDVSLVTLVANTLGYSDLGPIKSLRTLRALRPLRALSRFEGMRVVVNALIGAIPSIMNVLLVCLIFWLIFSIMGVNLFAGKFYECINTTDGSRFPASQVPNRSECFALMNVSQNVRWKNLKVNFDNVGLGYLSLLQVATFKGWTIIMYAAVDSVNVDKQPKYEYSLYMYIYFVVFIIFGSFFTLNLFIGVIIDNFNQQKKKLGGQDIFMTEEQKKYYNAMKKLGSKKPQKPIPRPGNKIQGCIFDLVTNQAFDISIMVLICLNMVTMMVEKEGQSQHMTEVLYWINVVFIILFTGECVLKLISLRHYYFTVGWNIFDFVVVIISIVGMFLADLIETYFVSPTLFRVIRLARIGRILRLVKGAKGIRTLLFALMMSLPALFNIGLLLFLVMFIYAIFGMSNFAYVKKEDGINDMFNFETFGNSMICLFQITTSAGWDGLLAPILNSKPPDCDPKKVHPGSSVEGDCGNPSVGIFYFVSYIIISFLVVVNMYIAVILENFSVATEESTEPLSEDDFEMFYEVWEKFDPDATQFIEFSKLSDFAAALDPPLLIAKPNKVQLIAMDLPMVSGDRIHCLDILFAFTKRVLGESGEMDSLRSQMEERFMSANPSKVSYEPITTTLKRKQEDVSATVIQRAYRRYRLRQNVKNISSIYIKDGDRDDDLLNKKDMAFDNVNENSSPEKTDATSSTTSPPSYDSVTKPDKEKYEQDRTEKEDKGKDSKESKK

Structure (SMILES) | pIC50 (hNav1.5; use-dependent block) | pIC50 (hNav1.7; use-dependent block) | pIC50 (hNav1.3; use-dependent block) | pIC50 (hNav1.5; Use) | pIC50 (hNav1.7; Use) | pIC50 (hNav1.3; Use)
CC[C@H](C)[C@@H]1NC(=O)[C@@H]2CSSC[C@@H]3NC(=O)[C@H](C(C)C)NC(=O)[C@H](CC(C)C)NC(=O)[C@H](CC(N)=O)NC(=O)[C@@H]4CCCN4C(=O)[C@H](Cc4cn(CCOCCOCCOCCOCCOCCOCCOCCOCCOCCOCCN)nn4)NC(=O)[C@H](CSSC[C@H](NC(=O)[C@@H](N)CC(=O)O)C(=O)N[C@@H](CC(C)C)C(=O)NCC(=O)N[C@@H](C)C(=O)N[C@@H](Cc4ccccc4)C(=O)N[C@@H](CCCNC(=N)N)C(=O)N[C@@H](CCCCN)C(=O)N2)NC(=O)[C@H](CSSC[C@@H](C(=O)N[C@@H](CCCCN)C(=O)N[C@@H](Cc2ccc(O)cc2)C(=O)N[C@H](C(=O)N[C@@H](Cc2ccccc2)C(N)=O)C(C)C)NC(=O)[C@H](Cc2c[nH]c4ccccc24)NC(=O)[C@H](CCCCN)NC(=O)[C@H](Cc2c[nH]cn2)NC(=O)[C@H]([C@@H](C)O)NC(=O)[C@H](CCCNC(=N)N)NC(=O)[C@H](CO)NC3=O)NC(=O)[C@H](CCCCN)NC(=O)[C@H](CC(=O)O)NC(=O)[C@H](CC(N)=O)NC(=O)[C@H](CC(=O)O)NC(=O)[C@@H]2CCCN2C1=O [compound 569] | < 5.30 | 6.64 | 6.96 |  |  | 
CC[C@H](C)[C@@H]1NC(=O)[C@@H]2CSSC[C@@H]3NC(=O)[C@H](C(C)C)NC(=O)[C@H](CC(C)C)NC(=O)[C@H](CC(N)=O)NC(=O)[C@@H]4CCCN4C(=O)[C@H](CCCNC(=N)N)NC(=O)[C@H](CSSC[C@H](NC(=O)[C@@H](N)CC(=O)O)C(=O)N[C@@H](CC(C)C)C(=O)NCC(=O)N[C@@H](Cc4ccccc4)C(=O)N[C@@H](Cc4ccccc4)C(=O)N[C@@H](CCCNC(=N)N)C(=O)N[C@@H](CCCCN)C(=O)N2)NC(=O)[C@H](CSSC[C@@H](C(=O)N[C@@H](CCCCN)C(=O)N[C@@H](Cc2ccc(O)cc2)C(=O)N[C@H](C(=O)N[C@@H](Cc2ccccc2)C(N)=O)C(C)C)NC(=O)[C@H](Cc2c[nH]c4ccccc24)NC(=O)[C@H](CCCCN)NC(=O)[C@H](Cc2c[nH]cn2)NC(=O)[C@H](Cc2cn(CCOCCOCCOCCOCCOCCOCCOCCOCCOCCOCCN)nn2)NC(=O)[C@H](CCCNC(=N)N)NC(=O)[C@H](CO)NC3=O)NC(=O)[C@H](CCCCN)NC(=O)[C@H](CC(=O)O)NC(=O)[C@H](CC(N)=O)NC(=O)[C@H](CC(=O)O)NC(=O)[C@@H]2CCCN2C1=O [compound 543] | 5.10 | 6.20 | 6.32 |  |  | 
CSCC[C@@H]1NC(=O)[C@H](Cc2ccccc2)NC(=O)CNC(=O)[C@H](CC(C)C)NC(=O)[C@@H](NC(=O)[C@@H](N)CC(=O)O)CSSC[C@@H]2NC(=O)[C@@H]3CSSC[C@@H](C(=O)N[C@@H](CCCCN)C(=O)N[C@@H](Cc4ccc(O)cc4)C(=O)N[C@H](C(=O)N[C@@H](Cc4ccccc4)C(N)=O)C(C)C)NC(=O)[C@H](Cc4c[nH]c5ccccc45)NC(=O)[C@H](CCCCN)NC(=O)[C@H](Cc4c[nH]cn4)NC(=O)[C@H]([C@@H](C)O)NC(=O)[C@H](CCCNC(=N)N)NC(=O)[C@H](CO)NC(=O)[C@H](CSSC[C@H](NC(=O)[C@H](CCCCN)NC(=O)[C@H](CCCNC(=N)N)NC1=O)C(=O)N(C)[C@@H](Cc1c[nH]c4ccccc14)C(=O)N1CCC[C@H]1C(=O)N[C@@H](CC(=O)O)C(=O)N[C@@H](CC(N)=O)C(=O)N[C@@H](CC(=O)O)C(=O)N[C@@H](CCCCN)C(=O)N3)NC(=O)[C@H](C(C)C)NC(=O)[C@H](CC(C)C)NC(=O)[C@H](CC(N)=O)NC(=O)[C@@H]1CCCN1C(=O)[C@H](CCCNC(=N)N)NC2=O [compound 300] |  |  |  | 5.00 | 7.10 | 7.15
CC[C@H](C)[C@@H]1NC(=O)[C@@H]2CSSC[C@@H]3NC(=O)[C@H](C(C)C)NC(=O)[C@H](CC(C)C)NC(=O)[C@H](CC(N)=O)NC(=O)[C@@H]4CCCN4C(=O)[C@H](CCCNC(=N)N)NC(=O)[C@H](CSSC[C@H](NC(=O)[C@@H](N)CC(=O)O)C(=O)N[C@@H](CC(C)C)C(=O)NCC(=O)N[C@@H](Cc4ccccc4)C(=O)N[C@@H](Cc4ccccc4)C(=O)N[C@@H](CCCNC(=N)N)C(=O)N[C@@H](CCCCN)C(=O)N2)NC(=O)[C@H](CSSC[C@@H](C(=O)N[C@@H](CCCCN)C(=O)N[C@@H](Cc2ccc(O)cc2)C(=O)N[C@H](C(=O)N[C@@H](Cc2ccccc2)C(N)=O)C(C)C)NC(=O)[C@H](Cc2cn(CCOCCOCCOCCOCCOCCOCCOCCOCCOCCOCCN)nn2)NC(=O)[C@H](CCCCN)NC(=O)[C@H](Cc2c[nH]cn2)NC(=O)[C@H]([C@@H](C)O)NC(=O)[C@H](CCCNC(=N)N)NC(=O)[C@H](CO)NC3=O)NC(=O)[C@H](CCCCN)NC(=O)[C@H](CC(=O)O)NC(=O)[C@H](CC(N)=O)NC(=O)[C@H](CC(=O)O)NC(=O)[C@@H]2CCCN2C1=O [compound 546] | < 5.30 | 6.51 | 5.96 |  |  | 
CC[C@H](C)[C@@H]1NC(=O)[C@@H]2CSSC[C@@H]3NC(=O)[C@H](C(C)C)NC(=O)[C@H](CC(C)C)NC(=O)[C@H](CC(N)=O)NC(=O)[C@@H]4CCCN4C(=O)[C@H](CCCNC(=N)N)NC(=O)[C@H](CSSC[C@H](NC(=O)[C@@H](N)CC(=O)O)C(=O)N[C@@H](CC(C)C)C(=O)NCC(=O)N[C@@H](C)C(=O)N[C@@H](Cc4ccccc4)C(=O)N[C@@H](Cc4cn(CCOCCOCCOCCOCCOCCOCCOCCOCCOCCOCCN)nn4)C(=O)N[C@@H](CCCCN)C(=O)N2)NC(=O)[C@H](CSSC[C@@H](C(=O)N[C@@H](CCCCN)C(=O)N[C@@H](Cc2ccc(O)cc2)C(=O)N[C@H](C(=O)N[C@@H](Cc2ccccc2)C(N)=O)C(C)C)NC(=O)[C@H](Cc2c[nH]c4ccccc24)NC(=O)[C@H](CCCCN)NC(=O)[C@H](Cc2c[nH]cn2)NC(=O)[C@H]([C@@H](C)O)NC(=O)[C@H](CCCNC(=N)N)NC(=O)[C@H](CO)NC3=O)NC(=O)[C@H](CCCCN)NC(=O)[C@H](CC(=O)O)NC(=O)[C@H](CC(N)=O)NC(=O)[C@H](CC(=O)O)NC(=O)[C@@H]2CCCN2C1=O [compound 566] | < 5.30 | ≤ 5.30 | < 5.30 |  |  | 
CC[C@H](C)[C@@H]1NC(=O)[C@@H]2CSSC[C@@H]3NC(=O)[C@H](C(C)C)NC(=O)[C@H](CC(C)C)NC(=O)[C@H](CC(N)=O)NC(=O)[C@@H]4CCCN4C(=O)[C@H](CCCNC(=N)N)NC(=O)[C@H](CSSC[C@H](NC(=O)[C@@H](N)CC(=O)O)C(=O)N[C@@H](CC(C)C)C(=O)NCC(=O)N[C@@H](C)C(=O)N[C@@H](Cc4ccccc4)C(=O)N[C@@H](CCCNC(=N)N)C(=O)N[C@@H](CCCCN)C(=O)N2)NC(=O)[C@H](CSSC[C@@H](C(=O)N[C@@H](CCCCN)C(=O)N[C@@H](Cc2ccc(O)cc2)C(=O)N[C@H](C(=O)N[C@@H](Cc2ccccc2)C(=O)N[C@@H](Cc2cn(CCOCCOCCOCCOCCOCCOCCOCCOCCOCCOCCN)nn2)C(N)=O)C(C)C)NC(=O)[C@H](Cc2c[nH]c4ccccc24)NC(=O)[C@H](CCCCN)NC(=O)[C@H](Cc2c[nH]cn2)NC(=O)[C@H]([C@@H](C)O)NC(=O)[C@H](CCCNC(=N)N)NC(=O)[C@H](CO)NC3=O)NC(=O)[C@H](CCCCN)NC(=O)[C@H](CC(=O)O)NC(=O)[C@H](CC(N)=O)NC(=O)[C@H](CC(=O)O)NC(=O)[C@@H]2CCCN2C1=O [compound 579] | < 5.30 | ≤ 5.30 | < 5.30 |  |  | 
CC[C@H](C)[C@@H]1NC(=O)[C@@H]2CSSC[C@@H]3NC(=O)[C@H](C(C)C)NC(=O)[C@H](CC(C)C)NC(=O)[C@H](Cc4cn(CCOCCOCCOCCOCCOCCOCCOCCOCCOCCOCCN)nn4)NC(=O)[C@@H]4CCCN4C(=O)[C@H](CCCNC(=N)N)NC(=O)[C@H](CSSC[C@H](NC(=O)[C@@H](N)CC(=O)O)C(=O)N[C@@H](CC(C)C)C(=O)NCC(=O)N[C@@H](C)C(=O)N[C@@H](Cc4ccccc4)C(=O)N[C@@H](CCCNC(=N)N)C(=O)N[C@@H](CCCCN)C(=O)N2)NC(=O)[C@H](CSSC[C@@H](C(=O)N[C@@H](CCCCN)C(=O)N[C@@H](Cc2ccc(O)cc2)C(=O)N[C@H](C(=O)N[C@@H](Cc2ccccc2)C(N)=O)C(C)C)NC(=O)[C@H](Cc2c[nH]c4ccccc24)NC(=O)[C@H](CCCCN)NC(=O)[C@H](Cc2c[nH]cn2)NC(=O)[C@H]([C@@H](C)O)NC(=O)[C@H](CCCNC(=N)N)NC(=O)[C@H](CO)NC3=O)NC(=O)[C@H](CCCCN)NC(=O)[C@H](CC(=O)O)NC(=O)[C@H](CC(N)=O)NC(=O)[C@H](CC(=O)O)NC(=O)[C@@H]2CCCN2C1=O [compound 571] | < 5.30 | ≤ 5.30 | 5.40 |  |  | 
CC[C@H](C)[C@@H]1NC(=O)[C@@H]2CSSC[C@@H]3NC(=O)[C@H](C(C)C)NC(=O)[C@H](CC(C)C)NC(=O)[C@H](CC(N)=O)NC(=O)[C@@H]4CCCN4C(=O)[C@H](CCCNC(=N)N)NC(=O)[C@H](CSSC[C@H](NC(=O)[C@@H](N)CC(=O)O)C(=O)N[C@@H](CC(C)C)C(=O)NCC(=O)N[C@@H](Cc4ccccc4)C(=O)N[C@@H](Cc4ccccc4)C(=O)N[C@@H](CCCNC(=N)N)C(=O)N[C@@H](CCCCN)C(=O)N2)NC(=O)[C@H](CSSC[C@@H](C(=O)N[C@@H](CCCCN)C(=O)N[C@@H](Cc2ccc(O)cc2)C(=O)N[C@H](C(=O)N[C@@H](Cc2cccc4ccccc24)C(N)=O)C(C)C)NC(=O)[C@H](Cc2c[nH]c4ccccc24)NC(=O)[C@H](CCCCN)NC(=O)[C@H](Cc2c[nH]cn2)NC(=O)[C@H]([C@@H](C)O)NC(=O)[C@H](CCCNC(=N)N)NC(=O)[C@H](Cc2cn(CCOCCOCCOCCOCCOCCOCCOCCOCCOCCOCCN)nn2)NC3=O)NC(=O)[C@H](CCCCN)NC(=O)[C@H](CC(=O)O)NC(=O)[C@H](CC(N)=O)NC(=O)[C@H](CC(=O)O)NC(=O)[C@@H]2CCCN2C1=O [compound 555] | < 5.30 | 6.24 | 6.46 |  |  | 
